The record followed here is paper PMC4336329 (PLoS ONE, 2015).

Out of some 310,000 compounds screened, about 2,200 (0.71%) showed an effect of 50% or more. The effect is printed as a negative number. The list shows a part of the results.

Sequence of human ether-à-go-go-related gene (hERG) potassium channel (Q12809 whole entry, looked up): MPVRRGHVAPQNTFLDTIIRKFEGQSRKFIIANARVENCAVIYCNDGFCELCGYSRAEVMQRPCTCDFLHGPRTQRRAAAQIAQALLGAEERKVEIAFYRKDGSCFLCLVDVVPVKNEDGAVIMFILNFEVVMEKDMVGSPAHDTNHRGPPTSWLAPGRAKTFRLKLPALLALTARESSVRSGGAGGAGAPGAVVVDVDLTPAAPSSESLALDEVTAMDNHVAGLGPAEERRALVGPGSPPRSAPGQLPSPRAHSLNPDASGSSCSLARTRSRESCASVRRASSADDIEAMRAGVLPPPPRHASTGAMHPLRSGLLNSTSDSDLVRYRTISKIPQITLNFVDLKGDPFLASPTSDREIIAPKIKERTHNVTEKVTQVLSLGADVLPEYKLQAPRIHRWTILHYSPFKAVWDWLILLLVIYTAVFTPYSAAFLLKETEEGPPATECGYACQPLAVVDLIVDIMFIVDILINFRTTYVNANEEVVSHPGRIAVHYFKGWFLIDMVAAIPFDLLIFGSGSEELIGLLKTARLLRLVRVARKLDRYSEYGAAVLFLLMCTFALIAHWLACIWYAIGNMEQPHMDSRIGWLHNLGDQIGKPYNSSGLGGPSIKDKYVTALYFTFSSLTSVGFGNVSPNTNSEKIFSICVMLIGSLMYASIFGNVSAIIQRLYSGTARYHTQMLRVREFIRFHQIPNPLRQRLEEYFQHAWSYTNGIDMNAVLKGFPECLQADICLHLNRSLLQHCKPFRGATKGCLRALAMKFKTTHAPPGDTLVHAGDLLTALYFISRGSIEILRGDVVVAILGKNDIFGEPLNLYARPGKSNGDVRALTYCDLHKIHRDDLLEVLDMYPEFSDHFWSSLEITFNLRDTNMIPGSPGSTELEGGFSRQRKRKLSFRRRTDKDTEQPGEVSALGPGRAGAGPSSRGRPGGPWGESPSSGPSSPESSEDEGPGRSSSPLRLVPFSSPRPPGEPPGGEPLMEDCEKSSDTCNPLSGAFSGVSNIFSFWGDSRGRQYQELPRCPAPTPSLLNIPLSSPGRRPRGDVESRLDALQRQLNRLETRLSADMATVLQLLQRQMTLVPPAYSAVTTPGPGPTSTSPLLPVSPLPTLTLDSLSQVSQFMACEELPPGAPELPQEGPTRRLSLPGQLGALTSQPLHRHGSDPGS

This assay has as its target human ether-à-go-go-related gene (hERG) potassium channel (human, UniProt Q12809). The assay is described as follows: primary screen, population patch clamp on CHO cells stably expressing hERG.
Consider `COc1ccc(CN(C(=O)c2cccs2)c2ccccc2C(=O)O)cc1`, for which the “hERG current change (%, negative = inhibition) at 1uM” value came out at 9.94%. As to `CCCC(=O)Nc1ccc(-c2csc(NNC(C)=O)n2)cc1`, the “hERG current change (%, negative = inhibition) at 1uM” value was 8.09%. The same measure for `CCOc1ccccc1NC(=O)C1CCN(S(=O)(=O)c2ccc(OC)c(OC)c2)CC1`: 10.3%; for `CN(C)c1ccc(/C=C/c2cc[n+]([O-])cc2)cc1`: 8.96%; for `COc1cccc(C2C(C#N)=C(N)Oc3cc(C)n(Cc4ccco4)c(=O)c32)c1` (centres unmarked): -0.236%. For the compound `Cc1cc(C)nc(N2CCC(C(=O)NCc3ccccc3F)CC2)n1`, the “hERG current change (%, negative = inhibition) at 1uM” value came out at 1.75%. The same measure for `COc1ccc(OCc2nnc(SCC(=O)N3c4ccccc4Sc4ccc(Cl)cc43)o2)cc1`: 11.2%; for `CCOc1ccc(Nc2nc(Cc3nnc(SCC(=O)NC4CCCCC4)n3C)cs2)cc1`: -7.35%; for `O=C(CCc1ccccc1)Nc1nnc(-c2ccc3c(c2)OCCO3)o1`: 10.7%. Regarding `CCc1ccc(S(=O)(=O)NCCc2csc(-c3ccccc3)n2)s1`, the “hERG current change (%, negative = inhibition) at 1uM” value worked out at 13.2%. Regarding `Cc1cc(=O)[nH]c(SCC(=O)N2CCC(C(N)=O)CC2)n1`, the “hERG current change (%, negative = inhibition) at 1uM” value was 12%.

For the compound `COC(=O)C1=C(C)Nc2ncnn2C1c1cccnc1` (centres unmarked), the “hERG current change (%, negative = inhibition) at 1uM” value is given as -2.63%.

As to `CCOC(=O)c1cnn(-c2c(Cc3ccccc3)c(C)nc3c(-c4ccccc4)c(C)nn23)c1N`, the “hERG current change (%, negative = inhibition) at 1uM” value was -6.02%. With `N#C/C(=C\c1ccc([N+](=O)[O-])cc1)C(=O)NCCCn1ccnc1`, the “hERG current change (%, negative = inhibition) at 1uM” value is listed as -29.3%. Regarding `CC(=O)N1CCc2cc(S(=O)(=O)CCC(=O)NCCc3ccccc3)ccc21`, the “hERG current change (%, negative = inhibition) at 1uM” value worked out at 15.3%. The same measure for `COc1ccc(NC(=O)CSc2nc(O)cc(=O)n2C)cc1`: 14.3%; for `O=S(=O)(NCCSc1ccccn1)c1ccc(Br)cc1`: 2.05%. The same measure for `CCc1cc(Br)ccc1N1C(=O)C2CC=CCC2C1=O` (centres unmarked): 15.5%.

`O=C(CCCCCN1C(=O)c2ccccc2C1=O)Oc1ccc2c3c(c(=O)oc2c1)CCC3`: the “hERG current change (%, negative = inhibition) at 1uM” value was 13%. The same measure for `C=CCOC(=O)C1=C(C)NC(SCC(=O)N(CC)CC)=C(C#N)C1c1ccco1` (centres unmarked): -12.5%; for `O=C(O)C(c1ccccc1)N1C(=O)c2ccccc2C1=O` (centres unmarked): 11%; for `O=C(c1ccc(S(=O)(=O)Nc2ccccc2F)cc1)N1CCCCCC1`: 8.85%. The same measure for `Cc1[nH]n(C(C)(C)C)c(=O)c1Sc1ccc(Cl)cc1`: 13.5%.

Consider `COC(=O)c1cc(S(=O)(=O)Nc2cccc(OC)c2)cn1C`, for which the “hERG current change (%, negative = inhibition) at 1uM” value came out at 11.1%. Consider `Cc1c(Br)c([N+](=O)[O-])nn1CC(=O)c1ccccc1`, for which the “hERG current change (%, negative = inhibition) at 1uM” value is 12.7%. As for `O=C(CN1CCCN(Cc2ccc(F)cc2Cl)C1=O)NCc1ccccc1`, the “hERG current change (%, negative = inhibition) at 1uM” value is on record as -14.7%. For the compound `COc1ccccc1CCNC(=O)C(=O)NCC1OCCN1S(=O)(=O)c1ccc2c(c1)OCCO2` (centres unmarked), the “hERG current change (%, negative = inhibition) at 1uM” value amounted to 13.4%. The same measure for `CC(C)(C)c1ccc(CNc2ccc([N+](=O)[O-])cn2)cc1`: 2.44%; for `O=C(NNC(=O)c1ccc(O)cc1O)c1ccc(-c2ccccc2)cc1`: 11.8%; for `COc1ccc2nc(NC(=O)CCNC(=O)c3ccccc3Cl)sc2c1`: 2.68%. In the case of `O=C(c1cccnc1)C1CCCN(Cc2nc(Cc3ccccc3)no2)C1` (centres unmarked), the “hERG current change (%, negative = inhibition) at 1uM” value is given as 11%.

In the case of `CCC(=O)Oc1ccc2c(C)c(Cl)c(=O)oc2c1`, the “hERG current change (%, negative = inhibition) at 1uM” value was -2.38%. For `Cc1ccc(N=CC2=C(O)CC(C)(C)CC2=O)nc1`, the “hERG current change (%, negative = inhibition) at 1uM” value was 15.1%. As to `COC(=O)[C@@]12CCCCN1[C@H](c1ccc(-c3ccc(C(C)=O)cc3)cc1)[C@H]1C(=O)N(C)C(=O)[C@H]12.O=C(O)C(F)(F)F`, the “hERG current change (%, negative = inhibition) at 1uM” value amounted to 11.4%.

For `COc1ccc(OC)c(NC(=O)COC(=O)CN2C(=O)NC3(CCCC3)C2=O)c1`, the “hERG current change (%, negative = inhibition) at 1uM” value is listed as 9.7%. On to `O=C(c1oc2ccccc2c1N1CCCCC1)N1CCCCC1`, for which the “hERG current change (%, negative = inhibition) at 1uM” value is -4.4%.

With `CCn1c(/C=C/N(C(C)=O)c2ccccc2)[n+](CCCS(=O)(=O)[O-])c2cc(Cl)c(Cl)cc21`, the “hERG current change (%, negative = inhibition) at 1uM” value amounted to 10.6%. The same measure for `COc1ccc(C(C#N)N2N=C(C)CC2(C)C)cc1` (centres unmarked): 5.93%; for `O=C(NN=C1CCCCCC1)c1ccc(Cl)s1`: 16.8%.

Turning to `O=C(CCc1c[nH]c2ccccc12)N1CCCC1`, the “hERG current change (%, negative = inhibition) at 1uM” value is 23.9%. On to `CC(NC(=O)c1cccc(S(=O)(=O)N(C)C)c1)c1nc2ccccc2[nH]1` (centres unmarked), for which the “hERG current change (%, negative = inhibition) at 1uM” value turned out to be 9.08%. The same measure for `O=C1CSC(c2ccccn2)N1c1ccc(Cl)c(Cl)c1` (centres unmarked): 6.82%; for `CCN1CCc2nc3sc(C(=O)N4CCc5ccccc5C4)c(N)c3cc2C1`: 15.9%.

Consider `CCCCN(C)C1CCN(C(=S)Nc2cccc(SC)c2)CC1`, for which the “hERG current change (%, negative = inhibition) at 1uM” value is -14.7%. The same measure for `O=C(Cc1ccccc1)NCC(=O)N1CCCCCC1`: 5.64%; for `O=C(Nc1nn[nH]n1)c1cccc(Oc2ccccc2)c1`: 22.7%; for `O=C(CSc1nnc(CN2CCOCC2)n1-c1ccc(Cl)cc1)Nc1ccc2c(c1)OCO2`: -5.5%. The same measure for `Cc1ccc(C)c(CN2CCC(CNC(=O)Nc3cccc(Cl)c3C)CC2)c1`: 0.806%; for `COc1cc(/C=N/NC(=O)c2cccnc2)ccc1OCC(=O)Nc1c(C)cc(C)cc1C`: 21.1%.

Take `CN1CCN(C(=O)Nc2cccc(-c3ccccc3)c2)CC1`: the “hERG current change (%, negative = inhibition) at 1uM” value was found to be 7.08%. Turning to `O=c1c2c(nc3nc(SCc4ccccc4)[nH]n13)CCC2`, the “hERG current change (%, negative = inhibition) at 1uM” value amounted to 2.62%. `COc1ccc(/C=N/NC(=O)c2nn(-c3ccc(C)c(C)c3)c(=O)c3ccccc23)cc1`: the “hERG current change (%, negative = inhibition) at 1uM” value is given as 2.99%.

On to `COC(=O)c1cc(-c2ccc(Br)cc2)c2c(=O)[nH]c(=O)n(C)c2n1`, for which the “hERG current change (%, negative = inhibition) at 1uM” value was 14.3%.

As for `COc1ccc2[nH]c3c(c2c1)CCN1C(=O)N([C@@H](C)C(=O)NCc2ccco2)C(=O)[C@]31C`, the “hERG current change (%, negative = inhibition) at 1uM” value is given as -12.5%.

Regarding `Cc1ccccc1C(=O)N1N=C(c2ccc(NS(C)(=O)=O)cc2)CC1c1cccs1` (centres unmarked), the “hERG current change (%, negative = inhibition) at 1uM” value was found to be 2.15%. In the case of `CCCCN(C(=O)C(C)N1C(=O)c2ccccc2C1=O)c1c(N)n(CCCC)c(=O)[nH]c1=O` (centres unmarked), the “hERG current change (%, negative = inhibition) at 1uM” value was 13.1%. As for `COc1ccc(NC(=O)CSc2nc(-c3ccc(C)cc3)cc(C(F)(F)F)c2C#N)cc1`, the “hERG current change (%, negative = inhibition) at 1uM” value stood at 31.8%. The same measure for `COC(=O)c1cccc(C(=O)N2CCCC(Nc3ccc(C)c(C)c3)C2)c1` (centres unmarked): 8.18%; for `O=C(CSc1nnc2ccccn12)Nc1nsc(-c2ccccc2)n1`: 8.86%; for `CCC(C)c1ccc(N2C(=O)NC(=O)/C(=C/c3cccn3CCOc3ccc(C)cc3)C2=O)cc1` (centres unmarked): 16.9%. Consider `CCO.Cc1[nH]nc2c1C(c1cccs1)C1=C(CCCC1=O)N2` (centres unmarked), for which the “hERG current change (%, negative = inhibition) at 1uM” value was 12.9%.

Turning to `COC(=O)c1ccc(NC(=O)C(C)Oc2ccccc2)cc1` (centres unmarked), the “hERG current change (%, negative = inhibition) at 1uM” value is -0.376%. For the compound `COc1ccc(OC(=O)c2cc3cc(Cl)ccc3oc2=O)cc1`, the “hERG current change (%, negative = inhibition) at 1uM” value amounted to 9.73%. The same measure for `CCOc1cc(/C=C2/NC(=O)N(Cc3ccccc3F)C2=O)ccc1O`: 11%; for `Cc1c(O)c(=O)ccn1C`: 11.9%; for `COc1ccc(C2=CC(=O)C[C@H](c3ccc(OC)c(OC)c3)C2)cc1`: 5.39%.

In the case of `O=C(CN1CCN(S(=O)(=O)c2cccc(Br)c2)CC1)NCCc1cccs1`, the “hERG current change (%, negative = inhibition) at 1uM” value was 7.73%. For the compound `O=C(COc1ccc(F)cc1)Nc1nnc(-c2ccncc2)s1`, the “hERG current change (%, negative = inhibition) at 1uM” value was -1.35%. As to `Cc1ccc(-c2oc3ccccc3c(=O)c2O)cc1`, the “hERG current change (%, negative = inhibition) at 1uM” value was 9.86%.

For the compound `CCC(C)NC(=O)CSc1nnc(-c2cc(OC)c(OC)c(OC)c2)c(-c2cc(OC)c(OC)c(OC)c2)n1` (centres unmarked), the “hERG current change (%, negative = inhibition) at 1uM” value is reported as 10.8%. Consider `COc1cccc2cc(C(C)N(CCCN3CCOCC3)C(=S)Nc3ccc(C)cc3)oc12` (centres unmarked), for which the “hERG current change (%, negative = inhibition) at 1uM” value is 9.54%.

For the compound `Cc1ccc(NC(=O)CN(C)C(=O)c2ccccc2OCc2c(C)noc2C)cc1`, the “hERG current change (%, negative = inhibition) at 1uM” value stood at 2.17%. Consider `COc1ccccc1N1CCN(C(c2cc3ccc(C)cc3[nH]c2=O)c2nnnn2C2CCCC2)CC1` (centres unmarked), for which the “hERG current change (%, negative = inhibition) at 1uM” value is given as -8.67%. Take `CC(=O)Nc1ccc(NC(=O)C(C)OC(=O)C2CCCCC2)cc1` (centres unmarked): the “hERG current change (%, negative = inhibition) at 1uM” value is reported as -2.39%. In the case of `O=C(N/N=C\c1cccc(F)c1)c1ccc(Cn2cc(Br)c([N+](=O)[O-])n2)o1`, the “hERG current change (%, negative = inhibition) at 1uM” value is given as -2.41%. For the compound `COc1cccc(/C=N/NC(=O)C(C)n2nc(C)c([N+](=O)[O-])c2C)c1O` (centres unmarked), the “hERG current change (%, negative = inhibition) at 1uM” value came out at 6.33%. Regarding `Cc1nn(Cc2ccccc2)c(C)c1NC(=O)c1cc(-c2ccc3c(c2)OCO3)on1`, the “hERG current change (%, negative = inhibition) at 1uM” value is 14%. Regarding `O=[N+]([O-])c1ccccc1S(=O)(=O)N1CCN(C2CCN(Cc3ccccc3)CC2)CC1`, the “hERG current change (%, negative = inhibition) at 1uM” value is on record as -18.2%. For the compound `CCN(CC(=O)Nc1ccc(OC)cc1)C(=O)Cc1coc2cc(C)c(C)cc12`, the “hERG current change (%, negative = inhibition) at 1uM” value is reported as -3.3%. The same measure for `CC1(C)NC(=O)N(CCOCCOc2c(Cl)cc(Cl)cc2Cl)C1=O`: 1.41%. The same measure for `CC(C)CC(=O)N1CCC(O)(CS(=O)(=O)Cc2ccc(Cl)cc2)CC1`: -3.08%. With `COC(=O)C1C2C=CC3(CN(CCc4ccccc4)C(=O)C13)O2` (centres unmarked), the “hERG current change (%, negative = inhibition) at 1uM” value turned out to be 12.7%. As for `Cc1cc(C)c(C(=O)COC(=O)c2ccc([N+](=O)[O-])o2)cc1C`, the “hERG current change (%, negative = inhibition) at 1uM” value stood at 15.8%. The same measure for `COc1ccc(Cl)cc1-n1c(C)ccc1C`: 12.1%; for `CC(C)(C)N(Cc1ccccc1)C(=O)c1ccc(Br)o1`: 10%. The same measure for `O=C(O)[C@H]1CCCC[C@H]1C(=O)Nc1cc([N+](=O)[O-])ccc1F`: 11.5%.
